# The whole screen tested about 43,000 compounds, of which about 200 (0.47%) were called active. Not shown: some 12% with an inconclusive outcome. Calls follow the shape of the dose curve; as a rule, active = well fitted cell-killing curve with a large enough effect; inconclusive = small, poorly fitted or top-dose-only effect, or effect the other way; inactive = flat fitted curve, though single readings scatter. The list shows a part of the results.
# Experiment: Cell viability qHTS assay in S16 Pmp22-F2sN cells; also: nearly all actives have a fitted effect of over 65% in size
# Details: S16 Pmp22-F2sN Schwann cells (luciferase reporters placed in the Pmp22 gene) viability, CellTiter-Glo, 24 h; series mostly up to 57.5 µM; activity change, negative = cytotoxicity: at the top concentration
# Outline: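 Rat S16 Schwann reporter line, 24 h treatment with library compounds delivered at 23 nL per well. Cell viability by CellTiter-Glo luminescence.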
# % is scaled to controls: 0 for no effect and ±100 for the full control effect.
row,Compound,"activity change, negative = cytotoxicity"
1,Cc1c2cnn(-c3ccccc3)c(=O)c2c(C)n1C(C)C(=O)Nc1ccccc1C(F)(F)F (stereo not given),inactive: -3.17%
2,CCCN(CCC)C(=O)Cn1c(=O)n(-c2cccc(C)c2)c(=O)c2c1c1cc(OC)ccc1n2C,inactive: 2.62%
3,CSc1ccc(-c2nnn(CC(=O)Nc3sc4c(c3C#N)CCC(C(C)(C)C)C4)n2)cc1 (stereo not given),inactive: 12.1%
4,CCCCOc1ccc(C(C)NC(=O)CN2C(=O)CSc3ccc(S(=O)(=O)N4CCOCC4)cc32)cc1 (stereo not given),inactive: -5.1%
5,COc1cccc(-c2cc(C(F)(F)F)nc(NCCc3ccc(OC)c(OC)c3)n2)c1,inactive: 21.3%
6,O=S1(=O)c2ccccc2N(Cc2cccc(F)c2)c2ccccc21,inactive: 3.38%
7,COc1ccc(NC(=O)c2ccco2)cc1NC(=O)c1cc(Cl)ccc1OC,inactive: 12.1%
8,CCC(=O)Nc1ccc(Cl)c(-c2nc3ccccc3[nH]2)c1,inactive: 3.92%
9,Cc1ccc(-n2ncc3c(N4CCCCCC4)ncnc32)cc1Cl,inactive: 10.7%
10,Cc1cccc(NC(=O)c2ccc(-n3c(C)nnc3C)cc2)c1,inactive: -12.9%
11,COc1ccccc1CNC(=O)CCc1c(C)nc2cc(-c3ccc(Cl)cc3)nn2c1C,inactive: -1.84%
12,Cc1c(C(=O)OC2CCCCC2)[nH]c2c1C(=O)CC(c1ccc(F)cc1)C2 (stereo not given),inactive: 3.46%
13,COc1ccc(-c2[nH]nc3nc(-c4cc(Br)ccc4OC)cc(C(=O)O)c23)cc1,inactive: 4.75%
14,O=C(CN1CCCN(Cc2cccc(Cl)c2)S1(=O)=O)Nc1ccc2c(c1)OCCO2,inactive: -1.51%
15,O=c1c2cc3c(cc2nc2sc(Nc4cccc([N+](=O)[O-])c4)nn12)OCO3,inactive: 4.75%
16,Cc1ccc(C)c(S(=O)(=O)c2nnn3c2nc(N2CCN(C)CC2)c2sccc23)c1,inactive: -16.4%
17,CCOC(=O)c1c(NC(=O)c2ccc(OCC)c(Br)c2)sc2c1CCCC2,inactive: -0.203%
18,Cc1cc2oc(=O)c(CC(=O)NCCc3ccccc3F)c(C)c2c2occ(C(C)(C)C)c12,inactive: -2.41%
19,CC(=O)Nc1cc(C(=O)NCc2ccc(F)cc2)ccc1Sc1ccc(F)cc1,inactive: 7.71%
20,COc1ccccc1C(=O)Nc1ccc2nc(SCC(=O)N3CCCc4ccccc43)sc2c1,inactive: -14.7%
21,COc1ccc(OC)c(NC(=O)C2CCCN(S(=O)(=O)c3ccc4c(c3)CCCC(=O)N4)C2)c1 (stereo not given),inactive: -3.57%
22,COc1ccccc1NC(=O)C1=C(C)Nc2nc(SC)nn2C1c1ccccc1Cl (stereo not given),inactive: -3.3%
23,Cc1cccc(CN2CCC(CNC(=O)Cn3ncc4c([nH]c5ccc(C)cc54)c3=O)CC2)c1,inactive: 2.62%
24,CCOC(=O)c1cc(S(=O)(=O)NCc2ccc(Cl)cc2)[nH]n1,inactive: -0.746%

row,Compound,"activity change, negative = cytotoxicity"
1,COc1ccccc1C(=O)N/C(=C\c1cn(S(=O)(=O)N(C)C)c2ccccc12)C(=O)NCCCn1ccnc1,inactive: 22.4%
2,Cc1ccc(-n2ncc(C(=O)NCc3ccco3)c2C2CCN(C(=O)OC(C)(C)C)CC2)cc1C,inactive: -22.2%
3,COc1cc(NC(=O)c2cc3cc4ccc(C)cc4nc3o2)cc(OC)c1OC,inactive: 4.43%
4,O=C(CSc1nc2ccccc2nc1Cc1ccc(Cl)cc1)N1CCN(c2ccccc2)CC1,inactive: 9.39%
5,Cc1c(C(=O)Nc2cc(F)ccc2F)sc2nc(-c3ccc(F)cc3)cn12,inactive: -7.18%
6,CCN(CC)S(=O)(=O)c1ccc(C(=O)NCCSc2c(-c3ccccc3)[nH]c3ccccc23)cc1,inactive: -20.6%
7,CCCCCCOc1ccc(C2C(=O)N(C3CCCCC3)CC(=O)N2C2CCCCC2)cc1 (stereo not given),inactive: 4.3%
8,NC(=O)c1cc(S(=O)(=O)N2CCN(c3cccc(C(F)(F)F)c3)CC2)cs1,inactive: -1.66%
9,O=C(c1ccc2c(c1)N(Cc1ccc(F)cc1)C(=O)c1ccccc1S2(=O)=O)N1CCCCC1,inactive: 0.969%
10,OCc1cnc(SCc2ccccc2F)n1Cc1ccc(F)cc1,inactive: -13.8%
11,Cc1cc(C)cc(NC(=O)C(Cc2ccccc2)NS(=O)(=O)c2ccc3c(c2)CCC(=O)N3)c1 (stereo not given),inactive: 8.58%
12,CCOc1ccccc1NC(=O)C(=O)Nc1ccc2nc3n(c(=O)c2c1)CCCCC3,inactive: 14.7%
13,Cc1cc(C)c(NC(=O)C2CCCN(S(=O)(=O)c3c(C)noc3C)C2)c(C)c1 (stereo not given),inactive: -0.897%
14,Cc1cc(C)cc(NC(=O)Cc2noc3ccccc23)c1,inactive: -2.09%
15,O=C(c1ccccc1)N1c2nc(-c3ccco3)nn2C2(CCCCC2)[C@@H]2CCCC[C@@H]21,inactive: 1.18%
16,COc1cc(NC(=O)CSc2nc3nc(C)c(Cc4ccccc4Cl)c(C)n3n2)cc(OC)c1,inactive: -2.31%
17,Cc1ccc(Nc2ncnc3sc4c(c23)CCC(C)C4)cc1C (stereo not given),inactive: -1.83%
18,Cc1ccc(CNC(=O)C(=O)NCC(c2ccc3c(c2)OCO3)N2CCOCC2)cc1 (stereo not given),inactive: 9.92%
19,CCOC(=O)C1(C)C=C(Nc2cccc(C(=O)O)c2)C(=O)N1c1ccccc1 (stereo not given),inactive: 1.95%
20,Cc1ccc2c(=O)cc(C(=O)Nc3c(C)n(C)n(-c4ccccc4)c3=O)oc2c1,inactive: -20.9%
21,COc1cc2nc(SCc3ccc(C)cc3)n3nc(CCn4nc(C)cc4C)nc3c2cc1OC,inactive: 8.29%
22,CC(C)Cn1c(-c2cccc(Br)c2)nc2ccccc21,inactive: -15.7%
23,COC(=O)C(CCSC)Nc1ncnc2onc(-c3ccc(F)cc3)c12 (stereo not given),inactive: 3.9%
24,CCCOc1ccc(CNC(=O)C(NS(=O)(=O)c2cccs2)C(C)C)cc1 (stereo not given),inactive: -1.52%

row,Compound,"activity change, negative = cytotoxicity"
1,COc1cc(Cl)c(C)cc1NC(=O)c1cnc(N2CCCCC2)c2ccccc12,inactive: -25.6%
2,Cc1ccc(-n2cnnn2)cc1S(N)(=O)=O,inactive: -2.37%
3,CCc1cc2c(cc3c(=O)n(CC(=O)NCCc4ccc(OC)cc4OC)nc(CC)n32)s1,inactive: 5.19%
4,COC(=O)Cn1c(SCCOc2ccccc2OC)nc2ccccc21,inactive: 11.4%
5,Cc1cc2[nH]c(=O)c(=O)[nH]c2cc1S(=O)(=O)N1CCN(c2cccc(Cl)c2)CC1,inactive: 27.5%
6,COCCNC(=O)c1ccccc1NC(=O)c1nsc2ccccc12,inactive: -2.07%
7,CNC(=O)CN1C(=O)COc2ccc(S(=O)(=O)N3CCC(C)CC3)cc21,inactive: 7.58%
8,Cc1ccccc1Nc1c(-c2ccc(N3CCOCC3)cc2)nc2ccc(Br)cn12,inactive: 0.306%
9,CCSc1ncc(Cl)c(C(=O)Nc2cccc(Cl)c2)n1,inactive: -1.36%
10,Cc1ccc(NC(=O)c2ccc(NC(=O)CCS(=O)(=O)c3cccs3)cc2)cc1F,inactive: 17.1%
11,COc1cccc(Cn2cc(C(=O)c3ccc(Cl)cc3)c(=O)c3ccccc32)c1,inactive: -3.81%
12,COc1ccc(NC(=O)C2CCN(S(=O)(=O)c3c(C)noc3/C=C/c3cccs3)CC2)cc1Cl,inactive: -2.28%
13,Cc1nc2cccnc2n1C1CCN(C(=O)Nc2ccc(Cl)cc2)CC1,inactive: -11.3%
14,COC(=O)Cc1c(C)c2ccc3c(c2oc1=O)CN(Cc1ccccc1Cl)CO3,inactive: 8.45%
15,CCOc1ccc(-c2c(C)nn3c(C)c(C(=O)NCCc4ccc(C)cc4)cnc23)cc1OCC,inactive: 0.769%
16,CC1CCN(C(=O)CSc2nc(-c3ccc(F)cc3)cc(C(F)(F)F)n2)CC1,inactive: 26.5%
17,CCOC(=O)c1sc(NC(=O)c2c(-c3ccccc3)c(-c3ccccc3)nn(C)c2=O)nc1C,inactive: 1.02%
18,Cc1cc2c(cc1S(=O)(=O)Nc1cc(C(F)(F)F)cc(C(F)(F)F)c1)OCC(=O)N2,inactive: -18.6%
19,Cc1ccc(NC(=O)/C=C/c2ccccc2Cl)cc1Cl,inactive: 0.823%
20,COc1ccc(NC(=O)C2=C(C)Nc3nc(SCc4ccc(Cl)cc4)nn3C2c2cccc(OC)c2OC)cc1 (stereo not given),inactive: -7.59%
21,O=C(Cn1c(=O)nc(-c2ccccc2)c2ccccc21)Nc1ccc(Cl)cc1F,inactive: 15.4%
22,CCCCOC(=O)c1ccc(NC(=O)c2sc3nc(C)cc(C)c3c2N)cc1,inactive: 10.1%
23,COc1ccc(N(C)C(=O)Cn2cc(S(=O)(=O)N3CCN(c4ccccc4F)CC3)c3ccccc3c2=O)c(OC)c1,inactive: -5.75%
24,Cc1cccc(-n2c(=O)c3ccccc3n(Cc3ccc(F)cc3)c2=O)c1,inactive: 19.9%

row,Compound,"activity change, negative = cytotoxicity"
1,CCc1ccc(Nc2nc3ccccc3nc2NS(=O)(=O)c2ccccc2)cc1,inactive: 3.57%
2,Cc1ccc(-n2nc(C)c3c(C(F)(F)F)cc(-c4cccnc4)nc32)cc1Cl,inactive: -3.39%
3,COc1ccccc1C(=O)Nc1c(C(=O)NC(C)(C)C)oc2ccccc12,inactive: -5.78%
4,COc1ccc(NC2=C(c3ccc(C(F)(F)F)cc3)C(=O)c3ccccc32)cc1,inactive: -12.9%
5,COc1cccc(NC(=O)CN2C(=O)c3ccccc3Sc3ncccc32)c1,inactive: -1.32%
6,Cc1ccc(-c2nc(C)c(CCNC(=O)c3ccccc3Br)s2)cc1,inactive: -6.75%
7,CCOC(=O)c1ccc(NC(=O)c2cn3c4c(ccc(Cl)c4c2=O)OC(C)C3)cc1 (stereo not given),inactive: 0.951%
8,COc1cc(OC)c(N(C)C(=O)Nc2cn(CC(C)C)c(=O)c3ccccc23)cc1Cl,inactive: 4.58%
9,CCCc1nn2c(=O)cc(COC(=O)CNC(=O)COc3ccc(C)cc3)nc2s1,inactive: 6.59%
10,CCN(c1cccc(C)c1)S(=O)(=O)c1ccc2[nH]cc(C(=O)NCCCOC)c(=O)c2c1,inactive: -9.07%
11,CC(=O)Nc1nonc1-c1nnc(SCC(=O)N(C)c2ccccc2)n1C,inactive: -16%
12,Clc1cccc(-n2ncc3c(N4CCCCC4)ncnc32)c1,inactive: 5.7%
13,O=C(Cn1cc(S(=O)(=O)Cc2cccc(Cl)c2)c2ccccc21)NCCc1ccccc1,inactive: -1.42%
14,Cc1ccc(NC(=O)/C(C#N)=C/c2ccc(C(C)C)cc2)cc1C,inactive: 0.618%
15,CCOC(=O)c1cnc2c(C)c(Cl)ccc2c1NCCc1ccccc1,inactive: 1.89%
16,COc1ccc(CNC(=O)C(=O)Nc2ccc(OC)cc2OC)cc1,inactive: -0.644%
17,CCC1CN(C(=O)N2CCC(C(=O)NCc3cccc(C)c3)CC2)c2ccccc2O1 (stereo not given),inactive: -4.68%
18,CCOc1ccccc1N(CC)C(=O)c1cc2c(=O)[nH]c3ccc(C)cc3c2s1,inactive: 3.45%
19,COc1ccc(CNC(=O)c2c3c(nc4ccccc24)C(=O)N(C2CCCCC2)C3)c(OC)c1,inactive: 0.616%
20,COC(=O)c1scc(-c2ccc(C)cc2)c1S(=O)(=O)Nc1cc(OC)c(OC)c(OC)c1,inactive: 21%
21,O=C(Cn1c(=O)nc(-c2ccccc2F)c2cc(Cl)ccc21)N1CCN(c2ccccc2F)CC1,inactive: 4.76%
22,CCCCC(CC)CNC(=O)CN1C(=O)CSc2ccc(S(=O)(=O)N3CCOCC3)cc21 (stereo not given),inactive: 10.8%
23,O=C(c1ccc2c(c1)N(Cc1ccc(F)cc1)C(=O)c1ccccc1S2=O)N1CCC(Cc2ccccc2)CC1 (stereo not given),inactive: -9.82%

# Reference: PubChem BioAssay AID1508642 (National Center for Advancing Translational Sciences (NCATS), 2021)
